Measured values: the supplement of paper PMC3334620
In all, about 33,000 sequences were measured (“E-score (-0.5 to 0.5)”: median about -0.016, highest 2% from about 0.31 on). Some of the results follow.

molecular target: Cst6 (UniProt P40535); test: PBM E-score (8-mer binding enrichment) (E-score (-0.5 to 0.5)); higher = stronger / more preferred TF binding; most listed sequences are background and not binding sites; conditions: protein concentration: 200 nM; construct: GST-DNA-binding domain
Method in brief: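 Bound GST-tagged yeast transcription factors, applied at about 100-200 nM to double-stranded universal all-10-mer Agilent arrays, were detected with fluorescent anti-GST. Scans were normalised with masliner. A modified Wilcoxon-Mann-Whitney statistic, the E-score, was assigned to each ungapped eight-base word pooled with its reverse complement by the Universal PBM Analysis Suite.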

Sequence	PBM E-score
CCCACTAA	-0.119
CTATTACC	-0.111
ACGGGTAC	-0.16
AAGTAGAG	0.018
GGGCTGAC	-0.0231
TAAAATGA	0.268
CCAGTGGC	-0.175
CGTTCGAC	-0.0785
ACCGACTC	-0.2
AGAAATGA	0.231
TACCAGAA	0.0986
ATGACCCC	-0.177
ATCGTCTC	-0.0844
ACTACTAC	-0.0814
TGCATGCA	0.00464
AGCTCGTA	-0.098
GCTTTCCC	-0.145
CTTGTACC	-0.00851
CGGGTGTA	-0.192
TACAGCGA	-0.116
AAATGGCT	0.00259
ATTCAATG	0.134
AAGGTTAC	0.072
GCCCGGCA	-0.251
CTCAACGA	-0.065

Sequence	PBM E-score
ATGACGCA	0.485
ATGGGAGG	-0.215
CGTGGCAC	0.104
CAGAGTCC	-0.0312
CCCAGCTC	-0.327
GAATCCTC	-0.238
CCCTAGCC	-0.175
CTTTAGGC	-0.111
ACGTACAA	0.168
AGCGGTCG	-0.219
AAACTTGC	0.174
ATGTTCTA	-0.0863
ACCTCCCA	-0.36
ATACGTCA	0.494
ATCGGCCA	-0.132
ACCAGCCA	-0.177
CACGTACC	-0.0025
GACGACGC	0.074
CGTGTCAC	0.2
CCTTATTA	0.19
AAGGCATT	0.199
AAAGGTGT	-0.167
CAGGACTC	-0.158
CCCCAGAG	-0.311
ACCCACTC	-0.194

Sequence	PBM E-score
AATTGACT	0.0154
CAAGTTTC	0.0749
ACCATGCT	-0.0124
CTAGCTGC	-0.178
GACCAATA	0.0449
AGTGCCAT	-0.0464
GCACTAGC	-0.193
CCGCCCTC	-0.198
GGCTGCTA	-0.113
CCGTCGGA	-0.114
AGAGCAGC	-0.186
TCCATTCA	0.0114
CAACTCGG	-0.16
GACTGACC	-0.198
ACCCACAA	0.105
ATTCAAAC	0.141
ACGGGAGA	-0.181
ACAGGTTA	-0.0664
CCCAACCA	-0.0722
AGTAGTCG	-0.0308
TGCGTAAA	0.218
TATGCTCA	0.0949
ATGTCCAA	0.0591
CCTTGCAA	-0.186
GCTGTGAA	-0.0683

Sequence	PBM E-score
ATAGTTGG	0.00697
AGTCCGAA	-0.0265
CCCAAGGG	-0.385
ACCGGGAC	-0.184
GTGACGAA	0.454
AATAAGAG	0.055
AGGAGTAC	-0.228
AATTTTAT	0.346
CACCATTC	0.0213
ACCAATGA	0.172
GCCGAAGC	-0.167
AGGTGCCG	0.137
CCGTAGAG	-0.107
CGCTAAAC	0.089
CAGTAAGC	-0.0334
ATGCCCAG	-0.177
CGGGCATC	-0.276
GATAATAA	0.098
CGGAAGTA	-0.102
CCCCACCG	-0.208
GATATTGC	-0.0125
AGCCCCAG	-0.282
AATGAGCA	0.126
GCGAAGAC	-0.202
CGTTCTTC	0.151

Sequence	PBM E-score
GAAAACCC	-0.08
GTTCACCA	-0.0696
AATTCATC	-0.0426
CAACTCCG	-0.142
AGCTAAGC	-0.156
ATCCGCAA	-0.0389
AACGTAGA	0.118
CTCTTGCC	-0.157
AACACTCC	-0.151
AAAGCTCC	-0.132
AACGGGTG	-0.104
CCCCGGCG	-0.254
ACCCGCTG	-0.177
CTCCGACC	-0.341
GAATGAAA	0.225
CTTATAAG	-0.0263
ACTAGATG	0.0271
CGGTGTCA	-0.0632
TCCGACAA	0.0665
CCTGCCAC	-0.0293
CTTTTCGC	0.0964
TCAAAACA	0.211
AATTTGTC	0.103
ATGCTCTA	-0.0844
TATAAGAA	0.125

Sequence	PBM E-score
CGGGTGAG	-0.198
ATTCGTTG	0.0893
GATGGGAC	-0.153
GATGTAAC	0.341
ATGGTCTG	-0.0481
CATTCGAA	0.0397
ATGCCGTC	0.323
GCTTAATA	0.0836
AAACGGGC	-0.101
TCACTCAA	0.0959
GCTTACCC	-0.292
ATATTTCG	0.186
AAGTATGC	-0.0449
AAGGCAGC	-0.11
ACATATTG	0.137
CACCCGGG	-0.278
CCAGAAAG	0.0375
CGTCAACA	0.407
AGCTTAGA	-0.00737
AGGTGATA	-0.138
CAAGAGTG	-0.0823
TACGAAGA	-0.034
AGCTTACT	-0.0615
CCTGCTTC	-0.196
CATATGCA	0.212

Sequence	PBM E-score
GGAAGGCC	-0.136
GTGCAAAC	-0.0316
ACCCAAAG	0.0358
GTGTAGCA	-0.208
CGGGAGCC	-0.17
CCTGTCCG	-0.153
GAAGTCAC	0.0776
CTCTCAAG	-0.14
ATTGTGCA	-0.0257
ATCGACTG	-0.0918
TATTTACA	0.156
CTCCCCCC	-0.319
AGCTCTTC	-0.0782
ATTCGGAG	-0.0899
CCTTGTAG	-0.126
CATAATGA	0.258
GGGCCCGA	-0.182
CGATGGTC	-0.1
CAGCAACA	0.18
ATCAATCG	0.211
AGGCACCC	-0.203
CCGGGCAC	-0.164
